# Data published in the supplement of paper PMC9334596.
# Several values for one entry are separate records, joined by “and”; a condition that tells them apart may be missing. Identical values can stand only once. In all, about 5,300 compounds were measured (“PER2::LUC luminescence relative to vehicle control”: median about 0.96, highest 2% from about 1.3 on). This is one part of the list.
# Tested on: mPer2Luc MEF
# Experiment: PER2::LUC luminescence relative to vehicle control (fold of vehicle); higher = higher PER2::LUC reporter signal
# Conditions: 10 µM
# Summary of the method: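 Mouse embryonic fibroblasts carrying the mPer2Luc reporter were seeded at ~3000 cells per well in 384-well plates, 48 h before compounds from commercial libraries were added at 10 μM. Cells were grown in DMEM with 10% FBS at 37 °C and 5% CO2. Luminescence was read with the ONE-Glo luciferase assay system 24 h and 30 h after treatment, followed by an alamarBlue viability assay. The value is PER2::LUC luminescence as fold of vehicle control.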
SMILES,PER2::LUC luminescence (time after treatment 24 h),PER2::LUC luminescence (time after treatment 30 h)
CNCC/C=C/c1cccnc1,0.935,0.963
O=C(O)CCCO,1.02,1
NCc1cccnc1,1.12,1.01
C=C/C=C\CC1=C(C)[C@@H](OC(=O)[C@@H]2[C@@H](/C=C(\C)C(=O)OC)C2(C)C)CC1=O.C=C/C=C\CC1=C(C)[C@@H](OC(=O)[C@@H]2[C@@H](C=C(C)C)C2(C)C)CC1=O,1.06,0.939
N[C@]1(C(=O)O)CC[C@H](C(=O)O)C1 (racemic),1.01,0.888
CC(NC(C)(C)C)C(=O)c1cccc(Cl)c1 (stereo unspecified),0.974 and 0.931 and 0.592,0.991 and 0.866 and 0.879
Oc1ccc2c3c1O[C@H]1c4[nH]c5ccccc5c4C[C@@]4(O)[C@@H](C2)N(CC2CC2)CC[C@]314,0.774 and 0.426,0.762 and 0.53
CN1CCC2=C(C1)c1ccccc1Cc1ccccc12,0.931,0.88
Cc1cc(C)cc(C(=O)OC2C[C@H]3CC[C@@H](C2)N3C)c1 (stereo partly specified),0.722,0.783
NCC(CC(=O)O)c1ccc(Cl)cc1 (stereo unspecified),1.01,0.772
CC(=O)O[C@H]1CC[C@H]2[C@@H]3CCC4=CC(=O)CCC4=C3C=C[C@]12C,0.987,0.941
"CN1CC[C@@]2(C)c3cc(O)ccc3N(C)C12 (single isomer, unassigned; (-))",1,0.964
CC(C)[C@]12O[C@H]1[C@@H]1O[C@]13[C@]1(O[C@H]1C[C@H]1C4=C(CC[C@@]13C)C(=O)OC4)[C@@H]2O,0.308,0.44
CCOC(=O)CC(SP(=S)(OC)OC)C(=O)OCC (stereo unspecified),0.996,1.19
CC(=O)[C@H]1CC[C@H]2[C@@H]3CC[C@H]4C[C@H](O)CC[C@]4(C)[C@H]3CC[C@]12C,0.995 and 0.868 and 0.864,1.07 and 1.05 and 0.983
CC(C)(C)c1cc(C=C(C#N)C#N)cc(Br)c1O,0.972,0.857
C=CCSSCC=C,1.03,0.94
NC[C@H](CC(=O)O)c1ccc(Cl)cc1,1.06,0.999
CCN1C[C@]2(C)CC[C@H](O)[C@]34C1[C@@H](C[C@H]23)[C@@]1(O)C[C@H](OC)[C@H]2C[C@@H]4[C@@H]1[C@H]2O,0.852,1.11
CC(N)Cc1ccc(O)cc1 (stereo unspecified),0.959,0.914

SMILES,PER2::LUC luminescence (time after treatment 24 h),PER2::LUC luminescence (time after treatment 30 h)
CN1CCN(C(=O)O[C@H]2c3nccnc3C(=O)N2c2ccc(Cl)cn2)CC1,1.03,0.937
Clc1cncc(N2CCNCC2)n1,0.836,0.917
O=C1Nc2ccc(Cl)cc2C(c2ccccc2Cl)=NC1O (stereo unspecified),0.955,0.928
CC(=O)O[C@H]1[C@H]2[C@@H](OC(=O)Cc3ccccc3)[C@@H](C)C[C@]2(OC(C)=O)C(=O)/C(C)=C/[C@@H]2[C@H](CC[C@@]13CO3)C2(C)C,0.946,0.917
CC1=C2C(=O)[C@H]3[C@@H](CC=C4C[C@@H](O)CC[C@@]43C)[C@@H]2CC[C@]12O[C@@H]1C[C@H](C)CN[C@H]1[C@H]2C,0.994,0.882
O=C1CC[C@@]2(O)[C@H]3Cc4ccc(O)c5c4[C@@]2(CCN3CC2CC2)[C@H]1O5,0.976 and 0.48,1.07 and 0.919
c1ccc2sc(C3(N4CCCC4)CCCCC3)cc2c1,0.894,0.807
NC(=O)c1cc([N+](=O)[O-])cc([N+](=O)[O-])c1,1.01,1.18
COc1ccc2c(c1O)-c1c(OC)c(OC)cc3c1[C@H](C2)N(C)CC3,0.916 and 1.01,0.928 and 1.24
Cn1c(CCCC(=O)O)nc2cc(N(CCCl)CCCl)ccc21,1.19,1.11
CN1C(=O)[C@]2(Cc3cn([C@]45C[C@@]67SS[C@@](CO)(C(=O)N6[C@H]4Nc4ccccc45)N(C)C7=O)c4ccccc34)SS[C@@]1(CO)C(=O)N2C,1.04,0.992
CN[C@@H]1[C@@H](O)[C@@H](O[C@@H]2[C@@H](O)[C@H](O[C@H]3O[C@H](CN)CC[C@H]3N)[C@@H](N)C[C@H]2N)OC[C@]1(C)O.CN[C@@H]1[C@@H](O)[C@@H](O[C@@H]2[C@@H](O)[C@H](O[C@H]3O[C@H]([C@@H](C)N)CC[C@H]3N)[C@@H](N)C[C@H]2N)OC[C@]1(C)O.CN[C@@H]1[C@@H](O)[C@@H](O[C@@H]2[C@@H](O)[C@H](O[C@H]3O[C@H]([C@@H](C)NC)CC[C@H]3N)[C@@H](N)C[C@H]2N)OC[C@]1(C)O,0.78,1.04
C[C@@H]1Cc2c(Cl)cc(C(=O)N[C@@H](Cc3ccccc3)C(=O)O)c(O)c2C(=O)O1,1.1,1.05
CN1C[C@H](C(=O)N[C@]2(C)O[C@@]3(O)[C@@H]4CCCN4C(=O)[C@H](Cc4ccccc4)N3C2=O)C=C2c3cccc4[nH]cc(c34)C[C@H]21,0.714,0.724
C[C@@H](NC(=O)[C@@H](N)Cc1ccc(O)cc1)C(=O)NCC(=O)N(C)[C@@H](Cc1ccccc1)C(=O)N[C@H](CO)CC[S+](C)[O-] (stereo partly specified),1.08,0.941
CNc1ccccc1C(=O)O,1.03,0.938
COc1cc(C(=O)OC2CC3CCC(C2)N3C)ccc1O (stereo unspecified),0.926,0.902
CCCN(CCC)[C@@H]1CCc2c(F)ccc(O)c2C1,1.05,0.925
NCC(CC(=O)O)c1ccc(Cl)cc1 (racemic),1.04,0.924
N[C@@H]1C[C@H]1c1ccccc1,0.986 and 1.14,1 and 1.05

SMILES,PER2::LUC luminescence (time after treatment 24 h),PER2::LUC luminescence (time after treatment 30 h)
Cc1sc2c(c1C)C(c1ccc(Cl)cc1)=N[C@@H](CC(N)=O)c1nnc(C)n1-2,0.111,0.121
CCC(C)C(=O)O[C@@H]1C[C@@]2(C)[C@H](c3ccoc3)OC(=O)CC23OC2(C)O[C@]14[C@]1(C)[C@@H](CC(=O)OC)C5(C)CC1(O)[C@](O)(C5OC(=O)C1(C)OC1C)[C@@H](OC(C)=O)[C@]34O2 (stereo partly specified),0.877,0.706
C[C@H]1CC[C@@H]2[C@@H](C)[C@H]3[C@H](C[C@H]4[C@@H]5CC[C@H]6C[C@@H](O)CC[C@]6(C)[C@H]5CC[C@]34C)N2C1,0.968,0.992
COc1ccc(N(C(=O)Oc2c(C)cccc2C)c2ccnc(Nc3ccc(N4CCN(C)CC4)cc3)n2)c(OC)c1,0.916,0.896
COC1=C[C@@H]2[C@@H]3Cc4ccc(OC)c(O)c4[C@]2(CCN3C)CC1=O,0.821,0.885
CCOC(=O)C1C(C=C(C)C)C1(C)C (stereo unspecified),1.05,1.02
O=[N+]([O-])C(Br)(CO)CO,1.02 and 0.437,0.921 and 0.421
"C=CCN1CC[C@@]2(C)c3cc(O)ccc3C[C@@H]1C2C (single isomer, unassigned; (+))",0.969,0.939
NC1=NC(=O)C(c2ccccc2)O1 (stereo unspecified),0.947,0.983
CCOC(=O)C1(c2ccccc2)CCN(CCC(C#N)(c2ccccc2)c2ccccc2)CC1,1.03,0.922
CC[C@@H]1C=CC=CC[C@H](C)[C@@H](O)[C@@H](C)C(=O)[C@H](C)[C@@H](O)[C@H](C)C(=O)[C@H](C)[C@@H](O)[C@H](C)C=CC(=O)O[C@H]2[C@@H](C)[C@@H](CC1)O[C@@]1(CC[C@@H](C)[C@@H](C[C@H](C)O)O1)[C@@H]2C,1.18,1.09
CN(C)CCc1ccc(O)cc1,1.05,1
CC(=O)[C@H]1CC[C@H]2[C@@H]3CC[C@H]4C[C@](C)(O)CC[C@]4(C)[C@H]3CC[C@]12C,1.01,0.851
O=C1C=CC(=O)c2ccccc21,1.03,1.05
CN1[C@@H]2C[C@@H](OC(=O)[C@H](CO)c3ccccc3)C[C@H]1[C@@H]1O[C@@H]12,0.968 and 0.842,0.922 and 0.825
C[C@@H]1O[C@@H](O[C@H]2CC[C@]3(C=O)[C@H]4CC[C@]5(C)[C@@H](C6=CC(=O)OC6)CC[C@]5(O)[C@@H]4CC[C@]3(O)C2)[C@H](O)[C@H](O)[C@H]1O,1.03,1.03
CC(C)(O)[C@H]1O[C@H]2CC[C@@]3(C)[C@@](O)(CC[C@H]4Cc5c([nH]c6ccccc56)[C@@]43C)C2=CC1=O,0.859,0.814
CC1(C)C2CC(=O)[C@]3(C)C(CC[C@@]4(C)[C@H](c5ccoc5)OC(=O)C5OC543)[C@@]2(C)[C@@H](O)C[C@H]1O (stereo partly specified),0.973,0.944
